Over roughly 1,100 sequences, “thermal melting temperature (Tm) of peptide-HLA complex” has its median near 58; the lowest 2% begin near 42. The list shows a part of the results.
These sequences were tested against HLA-A*02:01 (assay: thermal melting temperature (Tm) of peptide-HLA complex; higher = more thermostable pHLA complex). Settings: C1R-A*02:01.
For SMMDPNHFL, the thermal melting temperature was 56 °C.
For GLDDIKDLKV, the thermal melting temperature was 60.7 °C.
Sequence VLKEIVERV has a thermal melting temperature of 57.3 °C.
QLSEVFIQL showed a thermal melting temperature of 55.2 °C.
Work on RPFLAEAPTAL yielded a thermal melting temperature of 48 °C.
KIIDFIYTA showed a thermal melting temperature of 58 °C.
With ILDDTAKNLRV the thermal melting temperature was 44.7 °C.
With SLLGGVLRV the thermal melting temperature was 55.7 °C.
Sequence KLMDPGSLPPL has a thermal melting temperature of 57.3 °C.
SLFGGSVKL showed a thermal melting temperature of 61.2 °C.
KLQDQIFNL showed a thermal melting temperature of 56 °C.
In the case of YLEPYLKEV, the thermal melting temperature is reported as 63.1 °C.
RLYPWGVVEV was tested, and the thermal melting temperature was 63.7 °C.
Sequence SLMDLQERL has a thermal melting temperature of 57.6 °C.
In the case of ILMGVLKEV, the thermal melting temperature is reported as 60.3 °C.
Sequence ALNGHVEMV has a thermal melting temperature of 54.2 °C.
For RLFDEPQLASL, the thermal melting temperature was 58.5 °C.
KLLEPVPVSV gave a thermal melting temperature of 61.6 °C.
Sequence GLADITQQL has a thermal melting temperature of 58.3 °C.
WLAETTHAL gave a thermal melting temperature of 53.9 °C.
With NLFNRYPAL the thermal melting temperature was 58.4 °C.
Sequence KLYGPEGLELV has a thermal melting temperature of 56 °C.
SMGQLPHTV showed a thermal melting temperature of 41.4 °C.
In the case of YLVVKIEKV, the thermal melting temperature is reported as 55.3 °C.
Sequence FLKDLVASV has a thermal melting temperature of 63.3 °C.
Sequence RLLENMTEV has a thermal melting temperature of 60 °C.
In the case of ILAPTVQEL, the thermal melting temperature is reported as 51.6 °C.
Work on ALLAGSEYLKL yielded a thermal melting temperature of 63.4 °C.
RLAEALPKQSV showed a thermal melting temperature of 41.8 °C.
LLDPNIYRT gave a thermal melting temperature of 43.6 °C.
FLADRFVEGV was tested, and the thermal melting temperature was 61.4 °C.
RILDIDIPMSV was tested, and the thermal melting temperature was 57 °C.
Sequence YLSDIPLHDA has a thermal melting temperature of 58.2 °C.
FLNKEITSV gave a thermal melting temperature of 59.6 °C.
With VLYPHPPLA the thermal melting temperature was 60.2 °C.
With ILIRPLVSV the thermal melting temperature was 61.4 °C.
Work on VLQDIQVML yielded a thermal melting temperature of 53.5 °C.
ILLTEPGQVKL was tested, and the thermal melting temperature was 53.9 °C.
In the case of GLADNTVIAKV, the thermal melting temperature is reported as 62.3 °C.
VLYEDSLSSQV gave a thermal melting temperature of 50.4 °C.
In the case of ALSDLALHFL, the thermal melting temperature is reported as 52.6 °C.
In the case of LLDPSTPVHI, the thermal melting temperature is reported as 50 °C.
STFDHPELVKL showed a thermal melting temperature of 46.4 °C.
FLKNELDNV gave a thermal melting temperature of 59.7 °C.
TLWYRPPEL was tested, and the thermal melting temperature was 57.1 °C.
Work on KILPTLEAV yielded a thermal melting temperature of 60.6 °C.
Sequence ILLEHGADPNL has a thermal melting temperature of 51.4 °C.
ILFPDIIARA showed a thermal melting temperature of 55.7 °C.
With ILQEREYRL the thermal melting temperature was 58.7 °C.
Work on VLLGKVYVV yielded a thermal melting temperature of 63.4 °C.
FLNPDEVHAI gave a thermal melting temperature of 59.9 °C.
For SLTGHISTV, the thermal melting temperature was 58.2 °C.
With FLDEEVKLI the thermal melting temperature was 44.5 °C.
SLQTRLIFL showed a thermal melting temperature of 50.6 °C.
SIAPRMMSV showed a thermal melting temperature of 48.1 °C.
Work on NIVERLKEV yielded a thermal melting temperature of 59.5 °C.

From the supplement of paper PMC7726561
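Further: cell lysates heated 10 min at 37–73 °C, remaining pHLA pulled down with pan-class I antibody, peptides quantified by DIA-MS versus 37 °C, Tm where half the complex is lost.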
